In the supplement of paper PMC10369915 one finds enrichment score data, which are given here for 19 molecules.

The list shows a part of the results. Cut-off read from the data, not from the text of the source: active = 3.2 or more and inactive = the rest. The signal is at background level for most entries.
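Note: displayed peptides selected on beads carrying the immobilized SH2 domain, with library peptides lacking any tyrosine serving as negative controls.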

For one test, the target named is SHP2 C-SH2 domain E139D. Kind of test: enrichment score (SH2-bound / input frequency) (ratio); bacterial display of known human phosphotyrosine sites (pTyr-Var adds point mutants) read by sequencing; higher = stronger binding; tyrosines were phosphorylated by kinases first. The following applies: peptide library: pTyr-Var.
For SPFAVYLFFTF [RPGRIP1_Y826_R827L_YF], the enrichment score is inactive: 0.449.

On to YMLYQYLKQIE [RPAP3_Y569_D564Y], for which the enrichment score was active: 3.27.

As for IRTDAYVPAMT [RPE65_Y89_R91P], the enrichment score is inactive: 0.969.

As for IRTDAYVWAMT [RPE65_Y89_R91W], the enrichment score was inactive: 0.795.

Consider DENWFYTRAAF [RPS19_Y54_S59F], for which the enrichment score is inactive: 0.896.

Take HEKKAYSFCGT [RPS6KA3_Y226]: the enrichment score was inactive: 1.03.

With VIGRMYDYHVL [RPF2_Y109], the enrichment score was inactive: 1.41.

ICANKYMVKSC [RPL10_Y75]: the enrichment score was inactive: 2.43.

For VIVRMYDFHVL [RPF2_Y109_G106V_YF], the enrichment score is inactive: 3.19.

Regarding FMLFQYLKQIE [RPAP3_Y569_D564Y_YF], the enrichment score was active: 4.26.

Consider ASNNPYFRDQA [RPGRIP1_Y846], for which the enrichment score is inactive: 0.633.

For the molecule YKGKKYKPLDL [RPL35_Y78], the enrichment score is inactive: 0.569.

As for YKGKNYKPLDL [RPL35_Y78_K77N], the enrichment score is inactive: 0.911.

Take DMLYQYLKQIE [RPAP3_Y569]: the enrichment score is inactive: 1.88.

Regarding VIVRMYDYHVL [RPF2_Y109_G106V], the enrichment score is active: 3.29.

For PEVRRHVLPLN [RPE65_Y368_Y368H], the enrichment score is inactive: 1.07.

Consider YGSSSYRGAGG [RPA2_Y14_G15R], for which the enrichment score was inactive: 0.705.

As for SPDMLYQFLKQ [RPAP3_Y567_YF], the enrichment score was inactive: 0.872.

As to VPLATYMQIYK [RPL21_Y30_R32Q], the enrichment score is inactive: 0.96.

In the next test the target is SHP2 C-SH2 domain wild-type. The description is as above. Conditions: peptide library: pTyr-Var.
On to SPFAVYLFFTF [RPGRIP1_Y826_R827L_YF], for which the enrichment score was inactive: 0.586.

With YMLYQYLKQIE [RPAP3_Y569_D564Y], the enrichment score was active: 3.6.

IRTDAYVPAMT [RPE65_Y89_R91P]: the enrichment score is inactive: 0.708.

Turning to IRTDAYVWAMT [RPE65_Y89_R91W], the enrichment score was inactive: 0.74.

Take DENWFYTRAAF [RPS19_Y54_S59F]: the enrichment score was inactive: 0.879.

Take HEKKAYSFCGT [RPS6KA3_Y226]: the enrichment score was inactive: 0.797.

For VIGRMYDYHVL [RPF2_Y109], the enrichment score is inactive: 1.55.

ICANKYMVKSC [RPL10_Y75]: the enrichment score was inactive: 2.11.

Consider VIVRMYDFHVL [RPF2_Y109_G106V_YF], for which the enrichment score is inactive: 3.08.

Regarding FMLFQYLKQIE [RPAP3_Y569_D564Y_YF], the enrichment score is active: 3.56.

With ASNNPYFRDQA [RPGRIP1_Y846], the enrichment score was inactive: 0.454.

Take YKGKKYKPLDL [RPL35_Y78]: the enrichment score was inactive: 0.748.

For the molecule YKGKNYKPLDL [RPL35_Y78_K77N], the enrichment score is inactive: 1.09.

Regarding DMLYQYLKQIE [RPAP3_Y569], the enrichment score was inactive: 1.28.

For the molecule VIVRMYDYHVL [RPF2_Y109_G106V], the enrichment score is inactive: 3.02.

For the molecule PEVRRHVLPLN [RPE65_Y368_Y368H], the enrichment score is inactive: 1.16.

For the molecule YGSSSYRGAGG [RPA2_Y14_G15R], the enrichment score was inactive: 0.521.

SPDMLYQFLKQ [RPAP3_Y567_YF]: the enrichment score is inactive: 0.709.

In the case of VPLATYMQIYK [RPL21_Y30_R32Q], the enrichment score is inactive: 0.849.

Another test deals with SHP2 N-SH2 domain L43F. The description is as above. Conditions: peptide library: pTyr-Var.
As to SPFAVYLFFTF [RPGRIP1_Y826_R827L_YF], the enrichment score is inactive: 0.532.

In the case of YMLYQYLKQIE [RPAP3_Y569_D564Y], the enrichment score was inactive: 2.98.

For the molecule IRTDAYVPAMT [RPE65_Y89_R91P], the enrichment score was inactive: 0.667.

For the molecule IRTDAYVWAMT [RPE65_Y89_R91W], the enrichment score was inactive: 0.912.

Take DENWFYTRAAF [RPS19_Y54_S59F]: the enrichment score is inactive: 0.702.

Regarding HEKKAYSFCGT [RPS6KA3_Y226], the enrichment score was inactive: 0.761.

Turning to VIGRMYDYHVL [RPF2_Y109], the enrichment score is inactive: 2.73.

In the case of ICANKYMVKSC [RPL10_Y75], the enrichment score was inactive: 2.74.

Turning to VIVRMYDFHVL [RPF2_Y109_G106V_YF], the enrichment score is active: 3.99.

Take FMLFQYLKQIE [RPAP3_Y569_D564Y_YF]: the enrichment score is active: 3.72.

Consider ASNNPYFRDQA [RPGRIP1_Y846], for which the enrichment score is inactive: 0.613.

Take YKGKKYKPLDL [RPL35_Y78]: the enrichment score was inactive: 0.541.

For YKGKNYKPLDL [RPL35_Y78_K77N], the enrichment score is inactive: 0.801.

As to DMLYQYLKQIE [RPAP3_Y569], the enrichment score was inactive: 1.58.

Regarding VIVRMYDYHVL [RPF2_Y109_G106V], the enrichment score was active: 4.97.

As to PEVRRHVLPLN [RPE65_Y368_Y368H], the enrichment score was inactive: 1.02.

Turning to YGSSSYRGAGG [RPA2_Y14_G15R], the enrichment score was inactive: 0.428.

With SPDMLYQFLKQ [RPAP3_Y567_YF], the enrichment score is inactive: 0.812.

Regarding VPLATYMQIYK [RPL21_Y30_R32Q], the enrichment score is inactive: 1.07.

The target of the next test is SHP2 N-SH2 domain T42A. The test is described as above. The following applies: peptide library: pTyr-Var.
In the case of SPFAVYLFFTF [RPGRIP1_Y826_R827L_YF], the enrichment score was inactive: 0.612.

For YMLYQYLKQIE [RPAP3_Y569_D564Y], the enrichment score was inactive: 2.47.

Turning to IRTDAYVPAMT [RPE65_Y89_R91P], the enrichment score is inactive: 0.827.

For IRTDAYVWAMT [RPE65_Y89_R91W], the enrichment score is inactive: 0.712.

Consider DENWFYTRAAF [RPS19_Y54_S59F], for which the enrichment score was inactive: 0.881.

As to HEKKAYSFCGT [RPS6KA3_Y226], the enrichment score is inactive: 0.785.

As for VIGRMYDYHVL [RPF2_Y109], the enrichment score is inactive: 1.73.

In the case of ICANKYMVKSC [RPL10_Y75], the enrichment score was inactive: 2.26.

In the case of VIVRMYDFHVL [RPF2_Y109_G106V_YF], the enrichment score is inactive: 2.38.

Take FMLFQYLKQIE [RPAP3_Y569_D564Y_YF]: the enrichment score was inactive: 3.02.

Regarding ASNNPYFRDQA [RPGRIP1_Y846], the enrichment score is inactive: 0.529.

With YKGKKYKPLDL [RPL35_Y78], the enrichment score is inactive: 0.477.

With YKGKNYKPLDL [RPL35_Y78_K77N], the enrichment score was inactive: 0.955.

For DMLYQYLKQIE [RPAP3_Y569], the enrichment score was inactive: 1.44.

As to VIVRMYDYHVL [RPF2_Y109_G106V], the enrichment score is inactive: 3.19.

For the molecule PEVRRHVLPLN [RPE65_Y368_Y368H], the enrichment score was inactive: 0.675.

Take YGSSSYRGAGG [RPA2_Y14_G15R]: the enrichment score was inactive: 0.473.

Consider SPDMLYQFLKQ [RPAP3_Y567_YF], for which the enrichment score is inactive: 0.707.

For the molecule VPLATYMQIYK [RPL21_Y30_R32Q], the enrichment score is inactive: 1.06.

The target of another test is SHP2 N-SH2 domain T52S. Described as above. The following applies: peptide library: pTyr-Var.
On to SPFAVYLFFTF [RPGRIP1_Y826_R827L_YF], for which the enrichment score was inactive: 0.646.

As for YMLYQYLKQIE [RPAP3_Y569_D564Y], the enrichment score was inactive: 3.04.

In the case of IRTDAYVPAMT [RPE65_Y89_R91P], the enrichment score is inactive: 0.797.

IRTDAYVWAMT [RPE65_Y89_R91W]: the enrichment score was inactive: 0.811.

As for DENWFYTRAAF [RPS19_Y54_S59F], the enrichment score is inactive: 0.815.

For HEKKAYSFCGT [RPS6KA3_Y226], the enrichment score was inactive: 0.587.

With VIGRMYDYHVL [RPF2_Y109], the enrichment score is inactive: 2.89.

Take ICANKYMVKSC [RPL10_Y75]: the enrichment score is inactive: 2.36.

In the case of VIVRMYDFHVL [RPF2_Y109_G106V_YF], the enrichment score is active: 3.61.

Regarding FMLFQYLKQIE [RPAP3_Y569_D564Y_YF], the enrichment score is inactive: 3.16.

As to ASNNPYFRDQA [RPGRIP1_Y846], the enrichment score is inactive: 0.577.

Take YKGKKYKPLDL [RPL35_Y78]: the enrichment score is inactive: 0.71.

Regarding YKGKNYKPLDL [RPL35_Y78_K77N], the enrichment score was inactive: 0.931.

In the case of DMLYQYLKQIE [RPAP3_Y569], the enrichment score was inactive: 1.57.

For the molecule VIVRMYDYHVL [RPF2_Y109_G106V], the enrichment score was active: 5.05.

Regarding PEVRRHVLPLN [RPE65_Y368_Y368H], the enrichment score was inactive: 0.889.

YGSSSYRGAGG [RPA2_Y14_G15R]: the enrichment score is inactive: 0.506.

Take SPDMLYQFLKQ [RPAP3_Y567_YF]: the enrichment score was inactive: 0.807.

Consider VPLATYMQIYK [RPL21_Y30_R32Q], for which the enrichment score was inactive: 1.

For a further test, the target named is SHP2 N-SH2 domain wild-type. The test is described as above. Conditions: peptide library: pTyr-Var.
Turning to SPFAVYLFFTF [RPGRIP1_Y826_R827L_YF], the enrichment score is inactive: 0.71.

Regarding YMLYQYLKQIE [RPAP3_Y569_D564Y], the enrichment score is inactive: 2.96.

Regarding IRTDAYVPAMT [RPE65_Y89_R91P], the enrichment score is inactive: 0.738.

In the case of IRTDAYVWAMT [RPE65_Y89_R91W], the enrichment score is inactive: 1.06.

In the case of DENWFYTRAAF [RPS19_Y54_S59F], the enrichment score was inactive: 0.692.

As to HEKKAYSFCGT [RPS6KA3_Y226], the enrichment score is inactive: 0.787.

For the molecule VIGRMYDYHVL [RPF2_Y109], the enrichment score is inactive: 1.82.

ICANKYMVKSC [RPL10_Y75]: the enrichment score was inactive: 2.24.

Take VIVRMYDFHVL [RPF2_Y109_G106V_YF]: the enrichment score is inactive: 3.12.

As for FMLFQYLKQIE [RPAP3_Y569_D564Y_YF], the enrichment score was active: 4.53.

As for ASNNPYFRDQA [RPGRIP1_Y846], the enrichment score was inactive: 0.552.

Regarding YKGKKYKPLDL [RPL35_Y78], the enrichment score was inactive: 0.802.

YKGKNYKPLDL [RPL35_Y78_K77N]: the enrichment score is inactive: 1.28.

Regarding DMLYQYLKQIE [RPAP3_Y569], the enrichment score is inactive: 1.39.

Take VIVRMYDYHVL [RPF2_Y109_G106V]: the enrichment score was inactive: 3.13.

As for PEVRRHVLPLN [RPE65_Y368_Y368H], the enrichment score is inactive: 1.52.

In the case of YGSSSYRGAGG [RPA2_Y14_G15R], the enrichment score is inactive: 0.696.

SPDMLYQFLKQ [RPAP3_Y567_YF]: the enrichment score is inactive: 0.775.

In the case of VPLATYMQIYK [RPL21_Y30_R32Q], the enrichment score was inactive: 0.735.
